# Experimental data as given in patent US11339184B2, “Antibacterial compounds, compositions thereof, and methods using same” (priority 2019, dated 2022).
# How the values were obtained:
# [1] = test system: S. aureus ATCC 12600 carrying H481Y mutation; assay type: cell-based
# [2] = test system: S. aureus ATCC 12600 carrying S486L mutation; assay type: cell-based
compound,measurement,setting,value
"CO[C@H]1/C=C/O[C@@]2(C)Oc3c(C)c(O)c4c(O)c(c(/C=N/N5CCN(C)CC5)c(O)c4c3C2=O)NC(=O)/C(C)=C\C=C\[C@H](C)[C@H](O)[C@@H](C)[C@@H](O)[C@@H](C)[C@H](OC(C)=O)[C@@H]1C [Rif, rifampicin]",activity against the H481Y S. aureus strain,[1],inactive
same,activity against the S486L S. aureus strain,[2],inactive
